Our source for the Potency values is PubChem BioAssay AID360 (National Center for Advancing Translational Sciences (NCATS), 2006).

Hit rate of the full screen: of about 48,000 compounds, about 550 (1.1%) were called active. Not shown: some 4% with an inconclusive outcome. Rule as the data show it: active = potency below about 15 µM; inconclusive = mostly about 16 µM to 33 µM; inactive = weaker than that. Some of the results follow. Bounds are passed on as bounds.
Potency is read from the fitted curve at half-maximal effect.

For this experiment, the target named is Lysosomal acid glucosylceramidase (Homo sapiens) (UniProt P04062). Kind of experiment: Glucocerebrosidase.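 Also: the screen sought inhibitors.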 The note with it: purified enzyme, resorufin glucoside fluorescence (screen aimed at inhibitors), 20 min; series mostly up to 77 µM. The method in brief: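 Wild-type enzyme at 0.2 nM final in 50mM citric acid/KH2PO4, 10mM sodium taurocholate, 0.01% tween-20, pH 5.9, with resorufin beta-D-glucopyranoside at 30 uM final. Compounds titrated, 20 min at RT, red fluorescence read; AC50 from titration.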
UniProt P04062, sequence (P04062 whole entry, looked up): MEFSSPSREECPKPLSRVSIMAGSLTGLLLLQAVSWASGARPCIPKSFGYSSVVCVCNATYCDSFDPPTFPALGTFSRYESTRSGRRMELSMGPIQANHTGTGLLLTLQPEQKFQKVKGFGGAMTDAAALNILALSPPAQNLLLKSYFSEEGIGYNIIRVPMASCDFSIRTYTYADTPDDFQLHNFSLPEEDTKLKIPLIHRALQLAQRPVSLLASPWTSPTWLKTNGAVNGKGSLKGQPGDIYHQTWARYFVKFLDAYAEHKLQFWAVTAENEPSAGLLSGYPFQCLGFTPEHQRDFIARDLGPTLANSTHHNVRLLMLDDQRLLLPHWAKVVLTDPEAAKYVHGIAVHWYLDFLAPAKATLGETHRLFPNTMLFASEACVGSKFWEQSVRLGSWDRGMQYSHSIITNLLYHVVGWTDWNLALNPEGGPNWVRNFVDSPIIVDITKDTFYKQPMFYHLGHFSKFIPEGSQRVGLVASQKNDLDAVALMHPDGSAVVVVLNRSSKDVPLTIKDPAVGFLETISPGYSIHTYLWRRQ
`CCc1ccc(NC(=O)CS(=O)CC(=O)NC(C)CCc2ccco2)cc1` (stereo not given): the Potency is inactive: > 76.9 µM. For the molecule `O=C(O)CSCc1cnn(-c2ccccc2)c1-n1cccc1`, the Potency is inactive: > 76.9 µM. As for `COc1cc(NC(=O)C23CC4CC(C2)CC(n2nnc(C)n2)(C4)C3)c(OC)cc1Cl`, the Potency is inactive: > 76.9 µM. Regarding `Cc1nc(C)c2c(=O)cc(-c3ccccc3)[nH]c2n1`, the Potency is inactive: > 76.9 µM. Then `O=C(C1CCN(S(=O)(=O)N2CCOCC2)CC1)N1CCN(Cc2ccccc2)CC1`, with inactive: > 76.9 µM; and `COc1ccc(Oc2ncnc3c2ncn3Cc2ccccc2)cc1`, with inactive: > 76.9 µM; and `C=CCn1c(SCC(=O)NCc2ccc3c(c2)OCO3)nnc1C1COc2ccccc2O1` (stereo not given), with inactive: > 76.9 µM. On to `O=C(CN1CCN(c2ccccn2)CC1)Nc1cc(C(F)(F)F)ccc1Cl`, for which the Potency is inactive: > 76.9 µM.

Consider `CC(=O)NC(Cc1c[nH]c2ccccc12)C(=O)N1CCc2ccccc2C1` (stereo not given), for which the Potency is inactive: > 76.9 µM. As to `COCCNC(=O)c1ccc(CS(=O)(=O)c2ccc(Cl)cc2)o1`, the Potency was inactive: > 76.9 µM.

Take `O=C(CSc1nnc(Cc2ccccc2)n1-c1ccccc1)N1CCOCC1`: the Potency is inactive: > 76.9 µM. Take `CC(CN1CCOCC1)OC(=O)c1ccc(Br)cc1` (stereo not given): the Potency is inactive: > 76.9 µM. In the case of `O=S(=O)(c1ccc(N2CCN(S(=O)(=O)c3ccc4c(c3)OCCO4)CC2)nc1)N1CCCC1`, the Potency was inactive: > 76.9 µM. Then `Cc1nnc2c3cnn(-c4ccc(Cl)cc4)c3ncn12`, with inactive: > 76.9 µM; and `CC(=O)Nc1ccc(S(=O)(=O)n2cnc(C)c2)cc1`, with inactive: > 76.9 µM; and `C/C(Cl)=C\Cn1c(=O)c2c(nc3n2CCS3)n(C)c1=O`, with inactive: > 76.9 µM.

`Cc1ccc(CNC(=O)C2c3ccccc3C(=O)N3CCc4ccccc4C23)o1` (stereo not given): the Potency was inactive: > 76.9 µM.

With `CSCCC(NS(=O)(=O)c1cccs1)C(=O)NCc1cccs1` (stereo not given), the Potency was inactive: > 76.9 µM. Then `COc1ccc(N2CCN(C(=O)CSc3nnc4nc(C)cc(C)n34)CC2)cc1`, with inactive: > 76.9 µM.

Turning to `O=C(CSc1nnc(-c2ccc(Cl)cc2)o1)N1CCN(c2ccccc2)CC1`, the Potency was inactive: > 76.9 µM.

With `Cn1c(SCC(=O)Nc2ccc3cn[nH]c3c2)nnc1-c1cccs1`, the Potency is inactive: > 76.9 µM.

As for `CCC(=O)n1nc(NCc2ccccc2OC)nc1NCc1ccccc1OC`, the Potency is inactive: > 76.9 µM. Turning to `CN1CC(=O)N(C)c2ncn(Cc3ccccc3)c2C1=O`, the Potency is inactive: > 76.9 µM.

For the molecule `O=C(NC1CC1)c1ccc(COc2ccc(F)cc2)o1`, the Potency was inactive: > 76.9 µM. The same measure for `CNC(=O)CSc1nnnn1CCCOC`: inactive: > 76.9 µM.
